The record followed here is PMC12136788.

The other results are listed elsewhere or left out.

The chains are these.
B1: chr1:130485734:130485735:-_ENSMUSG00000045382_ENSMUST00000052172|mus_mus|mus_mus_mus_hu_False|38_68 (ssRNA)
RNA: GGGAGUUCUACAGUCCGACGAUCGAUGAAGGAGUCGAUGCUGAUCCCAAUGUAGUAAGGCAGCCAACAGGCAAAGAAAGCCAGGAUGAGGAUGACUGUCGUCUUGAGGGCCUUGCGCUUCUGGUGGCCCUUGGAGUGUGACAGCAACAGAGGAUUGAGCAUCA
B2: 125748651_125751648_737_CDS_ENSG00000011454_ENST00000373647|human|control|control (ssRNA)
RNA: GGGAGUUCUACAGUCCGACGAUCCCCUCUGACACAGAAGAGGAUUUUGUAGAUAGGGUAGUUUGCUAUUUCAGUGUUUGUCUGAGGAUCUAAGAGUCUCACAAUUCCUUCAGACACAUUCGGCACUGAAAGGGUAACAUCUAGCAACAGAGGAUUGAGCAUCA
B3: chr12:53620312:53620313:+_ENSMUSG00000035133_ENSMUST00000110725|mus_hu|FALSE|FALSE (ssRNA)
RNA: GGGAGUUCUACAGUCCGACGAUCAGGUUUAAUAGGUGGAGGCACUUUAUGGUUGCGUUCAUGGUCAUGACAGUUUGGGGUACUAUGAAUAGGAUACUCAUUUCCUUCCAAAUCUAAUCUAUAUCUGGAACGGUCACUAGGUGUCAACAGAGGAUUGAGCAUCA
B4: 46328274_46342260_651_CDS_ENSG00000139218_ENST00000369367|human|control|control (ssRNA)
RNA: GGGAGUUCUACAGUCCGACGAUCGUAUAAAGAGUUUCUAUGUAUCCACUUCAAGUCACAAACUUUUGCACUUAAUAGAUCUUCUCUUACGAUGGCUUUUCUUCUUAUACAGCUUUUAGAAUUUUCAUGACAGGAGACCUGUUUCAACAGAGGAUUGAGCAUCA
B5: chr11:118894041:118894042:+_ENSG00000196655_ENST00000359005|hu_hu|FALSE|FALSE (ssRNA)
RNA: GGGAGUUCUACAGUCCGACGAUCAGGUUCAGCCUAUGACCCAGGUCCAAAAGUUCCAGCCUUCUCUGCCACCUCCAGAGCUAGCUUCAGGUUCUGGUCAAAGAGCUCACACCUGAUAGGCAUUUCUGUCAGUGUCUGGUAGCACAACAGAGGAUUGAGCAUCA
B6: 96291751_96294445_1877_CDS_ENSG00000048828_ENST00000277165|human|control|control (ssRNA)
RNA: GGGAGUUCUACAGUCCGACGAUCGAUUUCACCCUUCGUCAGGACAUGGAAGAUGUAGGGGUACAUCAGCCCCUUCUUGUGCCUGUGCUCGGCCACUCUCAGCACCUCAGGUGCGACGGGGGGCAGGGGAGGUGUGGUGAUGUCCAACAGAGGAUUGAGCAUCA
B7: 94973500_94973620_1963_3pUTR_ENSMUSG00000021687_ENSMUST00000022197|mouse|control|control (ssRNA)
RNA: GGGAGUUCUACAGUCCGACGAUCCACCCAAACUUUUGCUGACCUUGUUCCUUCGUUAUUAAUAGAGGGGGGAAAAGAAAGAAACAUGGUGUCAUGUCCAAUGUAUAGUCUGAAUCUCUACUGACUCCUGGAAGAACUUCUGUGCAACAGAGGAUUGAGCAUCA
B8: chr1:17152557:17152558:+_ENSMUSG00000025777_ENSMUST00000026879|mus_mus|motif|central (ssRNA)
RNA: GGGAGUUCUACAGUCCGACGAUCUUCUCAUCAAAUUAUCCACUACCAUCCAUAAGCCAUAUUUACUUGAGACAUUCAUCGGUAUAUUACUUGUAUGCAUAAAUAGGGCUGUCGAGGCCAAGGUUCCCAGGACUGAAGACAAUCCAACAGAGGAUUGAGCAUCA
B9: chr3:47957716:47957717:-_ENSG00000047849_ENST00000395734|hu_hu|FALSE|FALSE (ssRNA)
RNA: GGGAGUUCUACAGUCCGACGAUCAUCCUCAGUCAGGGCCACCUCCAUUUCUGGAGGCAGACAUACGUUCUUGAUGAGAACUACUUCUGUUUCUGGAGGUGGAGUCACAUCCUUGCCCAGAGCCAUUUCUGUUUCUGAUAGUGGCAACAGAGGAUUGAGCAUCA
B10: chr16:94664741:94664742:+_ENSMUSG00000040785_ENSMUST00000117648|mus_hu|mus_mus_mus_hu_False|1_108 (ssRNA)
RNA: GGGAGUUCUACAGUCCGACGAUCUGGCAUGGAUCUUGGUAGCUGAUAUUCAGGAGAAAGGCUGGCCAAGGGUGUAUAUAUGCUGGUGUACUGGGGCAAACCUGGUAACACGUUUAUGUAUGCUGGCGGUGUCUGGGUGCCAAACAACAGAGGAUUGAGCAUCA
B11: chr9:2804355:2804356:-_ENSG00000080608_ENST00000397885|hu_hu|FALSE|FALSE (ssRNA)
RNA: GGGAGUUCUACAGUCCGACGAUCUUCCAUCUUGCUCUUAACUCUUUCCACCUAUGUGCUCAGUUUUUCAAGUAGAAUUUCUAUUCCUUUGCUGGUGCUUUUGGUUUUUUCCAAUGUAGGAAUCAAGCUUUUCAGUGCAGCUUUCAACAGAGGAUUGAGCAUCA
B12: chr9:54997157:54997158:+_ENSMUSG00000032307_ENSMUST00000059555|mus_hu|FALSE|FALSE (ssRNA)
RNA: GGGAGUUCUACAGUCCGACGAUCGUGGCGCUUCCUUUGUAACCGACUCCAGCGGCAGGAGGCGGCGGCCCCGCGGCUUAAAAGGGCAACAGCGACGCCGCCCCCGCUACCGCCUGGGAAAGGGCUGCCCCCACCCCGCCCCCGCAACAGAGGAUUGAGCAUCA
B13: chr8:97196980:97196981:+_ENSMUSG00000031776_ENSMUST00000034228|mus_mus|motif|central (ssRNA)
RNA: GGGAGUUCUACAGUCCGACGAUCGCCUGCUGGUCUGGUGAACUCAUGUCAAUCACACCGGUUGUGCGAAGGUGGGACCGGGUGCCGCAGGUUGUUCUGGGAAGCUGGCGUAGAAGAUGACUUACACAGAGAAGUCACAACCAACAACAGAGGAUUGAGCAUCA
B14: 63669693_63669813_2693_CDS_ENSMUSG00000028364_ENSMUST00000107372|mouse|control|control (ssRNA)
RNA: GGGAGUUCUACAGUCCGACGAUCGCGGGAGAUGAGGGACACCUCAUACUCCGUGUCAGGUCUCAGGUUCCCGAUGGAGUACUGGUUGUCUUCGUGUGUGAGGUCGAUGGUGGUACGGUCUCCAGGUACAUCCUUGAUGCCAUACAACAGAGGAUUGAGCAUCA
B15: chr14:92628060:92628061:+_ENSG00000165934_ENST00000298875|hu_hu|FALSE|FALSE (ssRNA)
RNA: GGGAGUUCUACAGUCCGACGAUCUUGACAUCAUGUCCUUUAUACAAUGGCAUAUUGUUCAUAUAAAAGGUCUCUUAUCCUAUAAAAAUCUUGACAAAGGCAGCCUUCUAAUCCAAUGCGUCCAGUUUCCGUUCUGCGGACUGCCAACAGAGGAUUGAGCAUCA
B16: chr12:39756943:39756944:-_ENSG00000139116_ENST00000544797|hu_mus|hu_hu_hu_mus_False|68_88 (ssRNA)
RNA: GGGAGUUCUACAGUCCGACGAUCGGUUUGGCUGUUACCCCCAAGGGAAUCCUGUAGGAGUCUUGUCAGCUUGGAAUCUCUGUAAGGGACAUGGGUGGCUCUCUUGCUCUUGUCCCCCAAGGCGCUGAUUACAUUCCCAAGAGCCAACAGAGGAUUGAGCAUCA
B17: chr3:49066234:49066235:-_ENSG00000178035_ENST00000326739|hu_hu|FALSE|FALSE (ssRNA)
RNA: GGGAGUUCUACAGUCCGACGAUCAGAAGUCAGGUCCACCUGGUCUGCAGUGAAGUCGAUGUACCCAGGGAGAAUGAGAAAGUCAUUGUAGGUGAGGCCGUCUCCGCAGUUGAAGAGCUGCUGUGCUGUGAGUCCGUCGUCUGGCAACAGAGGAUUGAGCAUCA
B18: chr16:55990476:55990477:+_ENSMUSG00000022601_ENSMUST00000050248|mus_mus|FALSE|FALSE (ssRNA)
RNA: GGGAGUUCUACAGUCCGACGAUCUAGUUUAUGUACACUUUCACAAAUUUCUAAAACUUCUGACAUAAAAAGGUGGCGAGCUAAGACGGCUACAUCAGCCAUGCUACAAAAGUCAAAACUUAGUACAGAAGUAUAGGCAAAUUCCAACAGAGGAUUGAGCAUCA
B19: chr1:39494447:39494448:+_ENSG00000168653_ENST00000372967|hu_mus|hu_hu_hu_mus_False|58_98 (ssRNA)
RNA: GGGAGUUCUACAGUCCGACGAUCGCACCGAGCGGCGAUCUUGUAGGGCUGUUCUGCGCUUAGGAACAUAAAGUGCCGAUCUAUGUUGAUGCCCAGCUUUUUCUGUAUGUCAAGGAAAGGCAUGGCUCUGCAGUGCCCUUGUCACAACAGAGGAUUGAGCAUCA
B20: 89236139_89237210_1028_CDS_ENSG00000065243_ENST00000370521|human|control|control (ssRNA)
RNA: GGGAGUUCUACAGUCCGACGAUCAAGUAAUUUCAUUACAUUCUUUGCACCUUCUGCUACUGCAAACUCUAUCCUAAAAUGAUGCCUUAAUUCUUCCAUCCGAAGUUCAAGAGGACUUAUCACAGGUUUUGCAUUAUCAAAAGCCAACAGAGGAUUGAGCAUCA
B21: chr9:95013113:95013114:-_ENSG00000196305_ENST00000443024|hu_hu|motif|central (ssRNA)
RNA: GGGAGUUCUACAGUCCGACGAUCUUCAGUGAGAAAAGGUGUGUAGGGAGCCAUAAGUCUGCAAAGAGAAAGCAGAACACGGAACAAGGUUUCUAGGGCCAUGACACAAUCCUCCAUCCCAUUUUCACCCUUUAAUCUUCUGCGCAACAGAGGAUUGAGCAUCA
B22: chr12:42180722:42180723:-_ENSMUSG00000036295_ENSMUST00000043884|mus_hu|mus_mus_mus_hu_True|8_68 (ssRNA)
RNA: GGGAGUUCUACAGUCCGACGAUCCUGUAGGAGAAGAAUCUGUGUGUUAGCUGGCAAUCUGGCUGGGAAGUUUAAAAGACCUAAAUCAUUACAAUCCACUGUAGAUGCUUCCAUAUAAAUGGAUCUGGGGGUAAACCAAGGCCUCAACAGAGGAUUGAGCAUCA

The test has as its target T1, UNK ZnF1-3 (human, UniProt Q9C0B0 31-174).
T1 sequence: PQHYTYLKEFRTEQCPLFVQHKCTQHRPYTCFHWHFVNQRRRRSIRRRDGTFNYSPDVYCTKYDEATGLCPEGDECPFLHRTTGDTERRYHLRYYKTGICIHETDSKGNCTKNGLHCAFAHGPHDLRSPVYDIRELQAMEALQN
The test is described as follows: nsRBNS (natural sequence RNA bind-n-seq); RBNS binding buffer (assumed for nsRBNS): 25 mM Tris pH 7.5, 150 mM KCl, 3 mM MgCl2, 0.01% Triton X-100, 500 ug/ml BSA, 20 U/ml SUPERase-In, 4 C; UNK is unkempt and MSI1 is Musashi-1; names of the RNAs are library labels; protein concentration not given here; high values mean tight binding.
The molecule B1 showed a binding signal of 1.01 enrichment R. The figure for B2 is 0.766 enrichment R; for B3 it is 0.781 enrichment R. The molecule B4 showed a binding signal of 0.624 enrichment R. For B5, the binding signal came to 0.615 enrichment R. Turning to B6, the binding signal came out at 0.869 enrichment R. As for B7, the figure is 1.31 enrichment R; as for B8, 1.43 enrichment R; as for B9, 0.658 enrichment R. Molecule B10 displayed a binding signal of 1.04 enrichment R.

As for B11, the binding signal was 0.306 enrichment R. B12 yielded a binding signal of 0.731 enrichment R.

Turning to B13, the binding signal was 0.993 enrichment R. In turn, B14 had a binding signal of 0.523 enrichment R. The molecule B15 showed a binding signal of 0.969 enrichment R. B16 registered a binding signal of 0.685 enrichment R. The molecule B17 gave a binding signal of 1.62 enrichment R. With B18, the binding signal was found to be 1.14 enrichment R. The figure for B19 is 0.443 enrichment R; for B20 it is 1.01 enrichment R; for B21 it is 1.27 enrichment R.

As to B22, the binding signal amounted to 1.29 enrichment R.
